Hit rate of the full screen: of about 350,000 compounds, about 9,900 (2.8%) were called active. The shares of active, inactive and inconclusive entries below differ from those in the screen. Calls follow the shape of the dose curve; as a rule, active = well fitted activation curve with a large enough effect; inconclusive = small, poorly fitted or top-dose-only effect; inactive = no such curve, though single readings can be large or run the other way. No potency is given beside an inconclusive call; the fits are too rough.
assay: A quantitative high throughput screen for small molecules that induce DNA re-replication in MCF 10a normal breast cells.; also: nearly all actives have a fitted effect of over 50% in size; conditions: MCF 10A DNA re-replication, Hoechst nuclear intensity, 48 h; series mostly up to 46.1 µM
Potency is read from the fitted curve at half-maximal effect; tags tell the direction and shape of the fitted curve.

Row | Compound | Potency
1 | CC(/C=N/NC(=O)c1nnn(-c2nonc2N)c1C)=C\c1ccccc1 | inconclusive [activator, single point]
2 | CC[C@@]1(C(=O)OC)N[C@H](CN(C)C(=O)COC)[C@@H]2C(=O)N(Cc3ccccc3)C(=O)[C@@H]21 | inactive
3 | CC(=O)c1ccc(NC(=O)c2cnn3ccccc23)cc1 | inactive
4 | O=C(Cc1ccc(Cl)cc1)Nc1ccccc1C(=O)N1CCCCC1 | inconclusive [activator, partial curve, poor fit]
5 | COC(=O)c1c(C)n(-c2ccc(C)cc2)c2ccc(O)cc12 | inconclusive [activator, single point]
6 | CN(C)c1ccc(NS(=O)(=O)c2cc3c4c(c2)CC(=O)N4CCC3)cc1 | inactive
7 | C/C(CC(=O)Nc1cc(Cl)ccc1Cl)=N\NC(=O)COc1cccc(C)c1 | inactive
8 | Clc1ccccc1C(c1ccccc1)(c1ccccc1)n1ccnc1 | active: 14.3 µM
9 | COc1ccc(OC)c(/C=C/c2nc3ccccc3[nH]c2=O)c1 | active: 13 µM
10 | COc1ccc(C(=O)/C=C/c2ccc(OC)c(COc3ccc(F)cc3)c2)cc1 | inconclusive [activator, single point]
11 | COc1cc(CC(=O)Nc2cccc(S(=O)(=O)N(C)c3ccccc3)c2)cc(OC)c1OC | inactive
12 | O=C(NC(=S)Nc1cccc2c(O)cccc12)c1cccc(Br)c1 | inconclusive [activator, single point]
13 | CN(C)CCN(C(=O)c1ccco1)c1nc2cc3c(cc2s1)OCCO3 | inactive
14 | CO/N=C1\CN(c2nc3c(cc2F)c(=O)c(C(=O)O)cn3C2CC2)CC1CN (stereo unspecified) | inactive
15 | CCSc1nsc(NC(=O)Nc2ccccc2F)n1 | inconclusive [activator, single point]
16 | O=C(Nc1cccc2cccnc12)c1ccc(Br)o1 | inconclusive [activator, partial curve, poor fit]
17 | Cn1c(=N)c(S(=O)(=O)c2ccc(F)cc2)cc2c(=O)n3ccccc3nc21 | inactive
18 | CC(C)c1ccc(NC(=O)CSc2ncccc2C(=O)Oc2cccc([N+](=O)[O-])c2)cc1 | inconclusive [activator, partial curve, poor fit]
19 | CC(=O)C1(C)C(=O)N(c2ccc(F)cc2)C(=O)N1c1ccc(F)cc1 (stereo unspecified) | inactive
20 | OCC1(Cc2ccccc2F)CCCN(CC2CCCCC2)C1 (stereo unspecified) | inconclusive [activator, single point]
21 | CCCCN(c1nc2ccccc2nc1Cl)S(=O)(=O)c1ccc(C)cc1 | inconclusive [activator, partial curve, poor fit]
22 | COC(=O)C1=C(C)NC(C)=C(C(=O)OC)C1c1ccc(C)o1 | inactive
23 | Cc1cc(C)n(-c2nc3ccccc3c(=O)n2OCC#N)n1 | inconclusive [activator, single point]

Row | Compound | Potency
24 | CC(C)CNC(=O)C(=O)N/N=C/c1cccs1 | inactive
25 | O=C(CN(C(=O)c1csnn1)c1cccc2ccccc12)NCc1ccccc1 | inconclusive [activator, single point]
26 | CC1CN(C)C(C)CC1OC(=O)C(c1ccccc1)c1ccccc1 (stereo unspecified) | inconclusive [activator, partial curve, poor fit]
27 | N#Cc1c2c(c(Nc3ccccc3)n3c1nc1ccccc13)CCC2 | active: 16.4 µM
28 | COc1ccc(/C=C/C(=O)NC2CCCCCCC2)cc1S(=O)(=O)N1CCOCC1 | inconclusive [activator, single point]
29 | CCN(CC(=O)NCC1CCCO1)S(=O)(=O)c1ccc(Cl)cc1 (stereo unspecified) | inactive
30 | c1ccc2[nH]c(NC3=NCCC3)nc2c1 | inactive
31 | Cc1ccc(C)c(NC(=O)CN(C)C(=O)c2ccc(Cl)nc2)c1 | inconclusive [activator, full curve, poor fit]
32 | Cc1cc(NC(=O)c2ccccc2F)n(-c2nc3ccccc3[nH]2)n1 | inconclusive [activator, partial curve]
33 | Cc1[nH]c2ccccc2c1[C@H]1[C@@H](CC#N)C1(C)C | inconclusive [activator, single point]
34 | Nc1c(C(=O)Nc2ccccc2)c2nc3ccccc3nc2n1CCCN1CCOCC1 | active: 10.3 µM
35 | CC(Sc1nnc(C2CC2)n1-c1ccccc1)C(=O)N1CCNC1=O (stereo unspecified) | inconclusive [activator, single point]
36 | COc1ccc(OCc2cc(C(=O)NCCCc3ccccc3)no2)c(Cl)c1 | inconclusive [activator, single point]
37 | Cc1cccc(C)c1OCc1nnc(NC(=O)CSc2ccc(Cl)cc2)s1 | inconclusive [activator, single point]
38 | Cc1ccc(NC(=O)CSC(C)c2nc3ccccc3c(=O)[nH]2)cc1 (stereo unspecified) | inactive
39 | O=C(c1nn2c(C(F)(F)F)cc(-c3ccccc3)nc2c1Cl)N1CCN2CCCC2C1 (stereo unspecified) | inactive
40 | O=C(NCCOc1ccc(F)cc1)c1ccccc1SCc1ccccc1 | inconclusive [activator, single point]
41 | COc1ccc(C(C)n2c(C)c3c(C)nnc(C)c3c2C)cc1 (stereo unspecified) | inconclusive [activator, partial curve]
42 | Cc1ccc2nc(Nc3ccc(Cl)cc3)c3nncn3c2c1 | inconclusive [activator, single point]
43 | Cc1oc2cc(O)cc(C)c2c(=O)c1-c1cnn(-c2ccccc2)c1 | inconclusive [activator, single point]
44 | COc1ccccc1NC(=O)c1sc2ncn(Cc3cccc(C)c3)c(=O)c2c1C | inconclusive [activator, full curve, poor fit]
45 | Cc1ccc(/C=N/NC(=O)c2cc3c(ccc4ccccc43)o2)o1 | inconclusive [activator, single point]
46 | CCOC(=O)c1ccc(Nc2nc(-c3cccnc3)nc3ccccc23)cc1 | active: 18.4 µM
